Hit rate of the full screen: of about 150,000 compounds, about 540 (0.36%) showed an effect of 50% or more. The list shows a part of the results.

In the assay the test system is Plasmodium falciparum. The assay can be described thus: Primary screen in NF54 nanoGlo assay, in single point, at 2uM, 72h; a lower Z score goes with more inhibition. To be noted: timepoint 72 hour. In kind it is functional, Erythrocyte.
For orientation: % Inhibition means the change of the read-out against control, counted positive when it falls. As to `COCCN1CCC[C@H](c2[nH]ccc2C(=O)NCc2ccco2)C1`, the “% Inhibition” value is on record as -9% and the Z score came out at 1.04.

As for `Fc1ccc(-c2n[nH]cc2CN2CCC(Nc3ncccn3)CC2)cc1`, the “% Inhibition” value is -1% and the Z score came to 0.1.

Take `O=C1C[C@H](C(=O)Nc2ccccc2NCc2ccc(Cl)cc2)CN1`: the “% Inhibition” value was -6% and the Z score is 0.5.

On to `CC(=O)c1cccc(NC(=O)CNC2(c3nccs3)CCCC2)c1`, for which the “% Inhibition” value is -2% and the Z score is reported as 0.17.

For `OC[C@H]1C[C@@H](CN2CCOCC2)CN(Cc2ccc(-c3cc[nH]n3)s2)C1`, the “% Inhibition” value is reported as -9% and the Z score was determined as 1.39.

Turning to `Cc1cc(OCc2cc(C(=O)N3CCN(C)[C@@H](C)C3)no2)cc(C)c1Cl`, the “% Inhibition” value stood at 15% and the Z score is -1.93.

Consider `Cc1cc(C(=O)N2CC(C(=O)NC[C@H]3CCCO3)C2)no1`, for which the “% Inhibition” value was -9% and the Z score came out at 1.6.

For `Cc1nc(-n2nc(C)c(Cc3ccc(Cl)cc3)c2C)sc1C(=O)N1CCOCC1`, the “% Inhibition” value is -12% and the Z score was determined as 1.07.

With `COc1ccc(-c2nc(NCc3ccc4c(c3)OCCO4)[nH]c(=O)c2C#N)cc1`, the “% Inhibition” value was -3% and the Z score amounted to 0.65.

Take `CC(C)c1cc(CN(C)c2nnc(C3CCC3)o2)no1`: the “% Inhibition” value is -8% and the Z score came to 1.09.

Consider `O=C1NC2=Nc3ccccc3NC(c3ccccc3)=C2[C@H](c2cccc3ncccc23)N1`, for which the “% Inhibition” value was determined as 27% and the Z score is listed as -3.37.

For the molecule `CCc1ccc2c(c1)C1(NC(Cc3c[nH]c4ccccc34)C3C(=O)N(c4ccc5c(c4)OCCO5)C(=O)C31)C(=O)N2` (centres undefined), the “% Inhibition” value is reported as -4% and the Z score was determined as 0.53.

As to `O=C(c1ccc2c(c1)n(CC1CC1)c(=O)n2C1CCCCC1)N1CCOCC1`, the “% Inhibition” value stood at 0% and the Z score turned out to be 0.02.

Take `C[C@@](NC(=O)NCC(=O)N1CCN(Cc2ccccc2)CC1)(C(=O)N1CCN(Cc2ccccc2)CC1)C1CC1`: the “% Inhibition” value was -2% and the Z score was found to be 0.18.

Regarding `CCc1nnsc1C(=O)NCc1noc(-c2ccccc2)n1`, the “% Inhibition” value is -9% and the Z score is 1.36.

Take `CCc1noc(C)c1-c1noc(-c2nc3nccc(C)n3n2)n1`: the “% Inhibition” value amounted to 1% and the Z score was -0.2.

On to `O=C1COc2cccc(OC[C@@H](O)COc3ccc(F)cc3)c2N1`, for which the “% Inhibition” value is 12% and the Z score was -1.06.

Consider `Nc1c2c(nn1-c1ccccc1)-c1ccccc1CC21CCCC1`, for which the “% Inhibition” value is recorded as -2% and the Z score amounted to 0.48.

`C=CCc1cc(C(=O)N[C@H]2CCN(C)C2)ccc1OC`: the “% Inhibition” value was found to be 2% and the Z score is listed as -0.33.

For `C[C@H]1C[C@H](NC(=O)c2cc(OC(F)F)n(C)n2)c2ccsc2S1(=O)=O`, the “% Inhibition” value was -8% and the Z score turned out to be 1.21.

For the molecule `O=C(CN1C(=O)NC2(CCCCCCC2)C1=O)Nc1ccc(Br)cc1`, the “% Inhibition” value came out at 10% and the Z score is recorded as -1.31.

Turning to `COCc1cccc(C(=O)N2CCNC(=O)[C@@H]2c2cccc(F)c2)c1`, the “% Inhibition” value was -13% and the Z score is on record as 1.26.

Values taken from ChEMBL document CHEMBL4888484, “Replenishing the malaria drug discovery pipeline: Screening and hit evaluation of the MMV Hit Generation Library 1 (HGL1) against asexual blood stage Plasmodium falciparum ,using a nano luciferase reporter read-out” (2022).
